{"source": "paper PMC4336329", "about": "(PLoS ONE, 2015)", "note": "Screen size: about 310,000 compounds; about 14,000 (4.5%) showed an effect of 50% or more. The effect is printed as a negative number. Some of the results follow.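 Also: peak tail current of the secondary pulse compared with the same well before compound.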", "data": [{"biological_target": "human ether-à-go-go-related gene (hERG) potassium channel (human, UniProt Q12809)", "sequence (Q12809 whole entry, looked up)": "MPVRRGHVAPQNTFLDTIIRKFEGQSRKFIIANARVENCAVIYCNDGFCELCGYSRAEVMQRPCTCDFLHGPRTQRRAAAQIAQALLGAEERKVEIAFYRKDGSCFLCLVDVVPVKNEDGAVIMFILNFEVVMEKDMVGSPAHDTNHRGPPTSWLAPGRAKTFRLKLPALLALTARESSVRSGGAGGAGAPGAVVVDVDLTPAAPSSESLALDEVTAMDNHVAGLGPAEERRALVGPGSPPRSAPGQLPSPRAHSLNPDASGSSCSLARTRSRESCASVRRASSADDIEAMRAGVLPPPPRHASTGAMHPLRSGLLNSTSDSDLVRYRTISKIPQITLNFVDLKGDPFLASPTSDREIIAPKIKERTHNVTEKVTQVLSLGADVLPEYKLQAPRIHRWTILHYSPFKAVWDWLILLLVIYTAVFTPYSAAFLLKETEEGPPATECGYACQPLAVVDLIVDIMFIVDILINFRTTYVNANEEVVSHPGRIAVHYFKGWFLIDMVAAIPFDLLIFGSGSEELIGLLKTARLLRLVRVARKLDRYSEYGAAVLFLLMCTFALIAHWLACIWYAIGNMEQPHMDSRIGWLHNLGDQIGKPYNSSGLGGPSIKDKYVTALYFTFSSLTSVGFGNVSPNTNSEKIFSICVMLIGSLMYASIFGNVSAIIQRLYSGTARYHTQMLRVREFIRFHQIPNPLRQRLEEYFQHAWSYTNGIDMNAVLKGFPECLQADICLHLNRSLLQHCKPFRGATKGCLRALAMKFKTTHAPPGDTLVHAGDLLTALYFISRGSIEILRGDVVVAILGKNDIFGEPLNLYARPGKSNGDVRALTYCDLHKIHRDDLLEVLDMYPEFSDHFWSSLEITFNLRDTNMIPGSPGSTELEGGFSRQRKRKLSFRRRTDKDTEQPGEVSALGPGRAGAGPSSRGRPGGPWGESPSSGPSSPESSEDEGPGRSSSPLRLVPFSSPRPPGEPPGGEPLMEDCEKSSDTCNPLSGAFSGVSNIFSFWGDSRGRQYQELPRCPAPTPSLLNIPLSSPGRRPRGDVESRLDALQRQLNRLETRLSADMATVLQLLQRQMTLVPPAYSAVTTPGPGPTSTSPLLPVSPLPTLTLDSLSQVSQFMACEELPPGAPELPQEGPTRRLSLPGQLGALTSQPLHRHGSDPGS", "experiment": "primary screen, population patch clamp on CHO cells stably expressing hERG", "units": {"hERG current change (%, negative = inhibition) at 10uM": "%"}, "values": [{"smiles": "C=CCn1c(CSc2nc3ccccc3s2)nnc1SCC(=O)OCC", "hERG current change (%, negative = inhibition) at 10uM": -33.5}, {"smiles": "COc1cccc(C(=O)C2CCCN(Cc3ccon3)C2)c1", "note": "(centres unmarked)", "hERG current change (%, negative = inhibition) at 10uM": 8.72}, {"smiles": "Cc1cccc(COc2ccccc2C(=O)NC2CCC(O)CC2)c1", "note": "(centres unmarked)", "hERG current change (%, negative = inhibition) at 10uM": -11.6}, {"smiles": "CCOc1ccc(CCNC(=O)c2ccc3nc(N4CCOCC4)sc3c2)cc1OCC", "hERG current change (%, negative = inhibition) at 10uM": -3.01}, {"smiles": "Cc1oc(/N=C/c2cccc([N+](=O)[O-])c2)c(C#N)c1C", "hERG current change (%, negative = inhibition) at 10uM": 16.8}, {"smiles": "COc1ccc(N(CC(=O)NC2CCCCC2)C(=O)CCCC(=O)Nc2ccccn2)c(OC)c1", "hERG current change (%, negative = inhibition) at 10uM": -12}, {"smiles": "CC(=O)N/C(=C/c1ccccc1)C(=O)N1CCCCC1", "hERG current change (%, negative = inhibition) at 10uM": 10.3}, {"smiles": "CN(C)CCCNC(=S)N1CCn2c(nc3ccccc32)C1", "hERG current change (%, negative = inhibition) at 10uM": 4.63}, {"smiles": "O=C(c1cccc([N+](=O)[O-])c1)N(c1ccccn1)c1ccccn1", "hERG current change (%, negative = inhibition) at 10uM": 6.79}, {"smiles": "Cc1cc(NC2CCCCC2)n2c(n1)nc1ccccc12", "hERG current change (%, negative = inhibition) at 10uM": -55.1}, {"smiles": "CC1CN(C2CCN(C(=O)c3cccc(Cl)c3)CC2)CC(C)O1", "note": "(centres unmarked)", "hERG current change (%, negative = inhibition) at 10uM": 6.5}, {"smiles": "O=C(NCc1nnc(SCC(=O)N2CCOCC2)o1)c1ccccc1F", "hERG current change (%, negative = inhibition) at 10uM": 24.2}, {"smiles": "CN(/C=C/C(=O)C(F)(F)C(F)(F)F)Cc1ccccc1", "hERG current change (%, negative = inhibition) at 10uM": -7.46}, {"smiles": "O=C(CCCn1c(SCC(=O)NCCc2ccccc2)nc2ccccc2c1=O)NCC1CCCO1", "note": "(centres unmarked)", "hERG current change (%, negative = inhibition) at 10uM": -22.8}, {"smiles": "Cc1ccc(NCC(=O)Nc2cccc(S(=O)(=O)N(C)C)c2)cc1S(=O)(=O)N1CCCCCC1", "hERG current change (%, negative = inhibition) at 10uM": -10.3}, {"smiles": "CCOC(=O)c1nnn(-c2nc(OC)nc(N(C)C)n2)c1-c1ccccc1", "hERG current change (%, negative = inhibition) at 10uM": -0.201}, {"smiles": "O=C(C[n+]1cc(-c2ccc(F)cc2)n2c1CCC2)N1c2ccccc2Sc2ccccc21.[Cl-]", "hERG current change (%, negative = inhibition) at 10uM": 6.17}, {"smiles": "CCOC(=O)c1c(NC(=O)COC(=O)c2ccncc2)sc(C)c1C", "hERG current change (%, negative = inhibition) at 10uM": 11.1}, {"smiles": "COc1ccc2[nH]cc(CCNC(C)=O)c2c1", "hERG current change (%, negative = inhibition) at 10uM": 2.25}, {"smiles": "N#Cc1ccccc1Sc1ccccc1C(=O)OCC(=O)N1CCN(C(=O)c2ccco2)CC1", "hERG current change (%, negative = inhibition) at 10uM": -36.3}, {"smiles": "Cc1cccc(OCC(=O)Nc2cc(S(=O)(=O)N3CCCCC3)ccc2N2CCN(C)CC2)c1", "hERG current change (%, negative = inhibition) at 10uM": -63}, {"smiles": "CCCCCCn1c(=O)c(C(=O)Nc2ncccc2O)c(O)c2ccccc21", "hERG current change (%, negative = inhibition) at 10uM": 9.65}, {"smiles": "Cc1cc(C)cc(N2C(=O)CN(Cc3ccccc3)C2=S)c1", "hERG current change (%, negative = inhibition) at 10uM": -2.18}, {"smiles": "O=C(O)CSc1nnc(NC(=O)c2ccc3c(c2)OCO3)s1", "hERG current change (%, negative = inhibition) at 10uM": -4.47}, {"smiles": "COc1ccccc1OCCN(C#N)c1nc(N(C)C)nc(N(C)C)n1", "hERG current change (%, negative = inhibition) at 10uM": 6.09}, {"smiles": "O=c1cc(CS(=O)(=O)c2ccccc2)nc(-c2ccncc2)[nH]1", "hERG current change (%, negative = inhibition) at 10uM": 9.86}, {"smiles": "CCOC(=O)c1sc(/N=C/c2c(O)n(-c3cccc(C)c3)c(=O)[nH]c2=O)c(C#N)c1C", "hERG current change (%, negative = inhibition) at 10uM": 5.2}, {"smiles": "CCOC(=O)CSC1=Nc2ccccc2C2=NC(CC(=O)NCc3ccccc3)C(=O)N12", "note": "(centres unmarked)", "hERG current change (%, negative = inhibition) at 10uM": -34.6}, {"smiles": "COCCCNC(=O)Cn1c(=O)n(Cc2ccc(F)cc2)c(=O)c2sccc21", "hERG current change (%, negative = inhibition) at 10uM": 5.58}, {"smiles": "CCc1ccccc1NC(=O)C1CCCN1C(=O)Nc1ccc(C)cc1", "note": "(centres unmarked)", "hERG current change (%, negative = inhibition) at 10uM": 2.15}, {"smiles": "CCOc1ccc(Nc2cc(C)nc3nc(C)nn23)cc1", "hERG current change (%, negative = inhibition) at 10uM": -33.2}, {"smiles": "Cc1cc(C(=O)COC(=O)c2ccccc2O)c(C)n1CC1CCCO1", "note": "(centres unmarked)", "hERG current change (%, negative = inhibition) at 10uM": -42}, {"smiles": "Cc1ccc(S(=O)(=O)N2CCN(C(=O)C(Cc3ccccc3)NC(=O)c3ccccc3)CC2)cc1", "note": "(centres unmarked)", "hERG current change (%, negative = inhibition) at 10uM": 16.6}, {"smiles": "O=C(Cn1c(CO)nc2ccccc21)NCCc1ccccc1", "hERG current change (%, negative = inhibition) at 10uM": -3.08}, {"smiles": "S=C(N/N=C/c1ccccc1Cl)Nc1cccc(Cl)c1Cl", "hERG current change (%, negative = inhibition) at 10uM": 12.9}, {"smiles": "Cc1ccc(/C=C(\\NC(=O)c2ccc(C)cc2)c2nc(=S)[nH][nH]2)cc1", "hERG current change (%, negative = inhibition) at 10uM": 5.82}, {"smiles": "Cc1cccc(OCc2nnc(SCC(=O)N3c4ccccc4CC3C)n2C)c1C", "note": "(centres unmarked)", "hERG current change (%, negative = inhibition) at 10uM": -8.59}, {"smiles": "O=S(=O)(c1ccc2nc(COc3ccc(Cl)cc3Cl)[nH]c2c1)N1CCOCC1", "hERG current change (%, negative = inhibition) at 10uM": -19.2}, {"smiles": "C=CCNC(=S)NNC(=O)c1ccc(Br)cc1", "hERG current change (%, negative = inhibition) at 10uM": 9.89}, {"smiles": "COc1ccc(CN(C(=O)c2ccco2)C2CC(C)N(C)CC2C)cc1", "note": "(centres unmarked)", "hERG current change (%, negative = inhibition) at 10uM": -53.4}, {"smiles": "CC(CCc1ccco1)NC(=O)c1cc2c(-c3ccccc3F)nn(C)c2s1", "note": "(centres unmarked)", "hERG current change (%, negative = inhibition) at 10uM": -5.86}, {"smiles": "O=C(NCc1n[nH]c(=S)n1-c1cccc(C(F)(F)F)c1)c1ccc(S(=O)(=O)N2CCCC2)cc1", "hERG current change (%, negative = inhibition) at 10uM": 15.1}, {"smiles": "Cc1cccc(CCNC(=O)C2CCN(S(=O)(=O)c3ccccc3)CC2)c1", "hERG current change (%, negative = inhibition) at 10uM": -25.4}, {"smiles": "CCn1c(COc2ccc(OC)cc2)nnc1SCc1nc2ccccc2c(=O)[nH]1", "hERG current change (%, negative = inhibition) at 10uM": 25.3}, {"smiles": "COc1ccc(C(=O)NC2=NCCS2)c(OC)c1", "hERG current change (%, negative = inhibition) at 10uM": 10.6}, {"smiles": "CC/C(=C/c1sc2ccccc2[n+]1CC)SC.COS(=O)(=O)[O-]", "hERG current change (%, negative = inhibition) at 10uM": 0.104}, {"smiles": "O=C(CN1C(=O)NC2(CCCCCCC2)C1=O)NCc1ccccc1Cl", "hERG current change (%, negative = inhibition) at 10uM": -4.32}, {"smiles": "Cc1ccc(NC(=O)CSc2ccc3nnc(-c4ccccn4)n3n2)cc1", "hERG current change (%, negative = inhibition) at 10uM": -44.2}, {"smiles": "Cc1ccccc1OCC(O)Cn1c(Br)nc2c1c(=O)[nH]c(=O)n2C", "note": "(centres unmarked)", "hERG current change (%, negative = inhibition) at 10uM": -7.67}, {"smiles": "O=C(Oc1ccc(/C=N/NC(=O)c2ccccn2)cc1)c1cccc(Br)c1", "hERG current change (%, negative = inhibition) at 10uM": 11.4}, {"smiles": "Cn1cc(NC(=O)CCl)cn1", "hERG current change (%, negative = inhibition) at 10uM": 29.7}, {"smiles": "Cc1cccc2sc(NC(=O)CSc3cn[nH]n3)nc12", "hERG current change (%, negative = inhibition) at 10uM": 16}, {"smiles": "O=C(NC(c1ccccc1)c1ccccc1)c1cccc(S(=O)(=O)NCc2ccccc2)c1", "hERG current change (%, negative = inhibition) at 10uM": -5.66}, {"smiles": "O=C(NC(=S)Nc1ccc(-c2ccc(CO)o2)cc1)c1cccs1", "hERG current change (%, negative = inhibition) at 10uM": 21}, {"smiles": "O=C1NCCCC2c3c(cc(Br)c(O)c3Br)OC12N1CCCCC1", "note": "(centres unmarked)", "hERG current change (%, negative = inhibition) at 10uM": -6.13}, {"smiles": "CC(O)[C@H]1CNCCN1CCc1cccc(F)c1", "note": "(some centres unmarked)", "hERG current change (%, negative = inhibition) at 10uM": 10.6}]}]}
